The campaign covered roughly 110,000 compounds. About 230 (0.21%) showed an effect of 50% or more. The list shows a part of the results.
Molecular target: DPAP1 (Plasmodium falciparum, UniProt Q8IIJ9)
Assay: primary screen, percent inhibition; read by cleavage of a fluorogenic dipeptide substrate; higher = more effect of the substance
Parameters: species or system P. falciparum D10 trophozoite lysates; single well
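Also: 30 min substrate incubation versus DMSO and 10 µM JCP410 controls.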

Chain of DPAP1 (Q8IIJ9 whole entry, looked up): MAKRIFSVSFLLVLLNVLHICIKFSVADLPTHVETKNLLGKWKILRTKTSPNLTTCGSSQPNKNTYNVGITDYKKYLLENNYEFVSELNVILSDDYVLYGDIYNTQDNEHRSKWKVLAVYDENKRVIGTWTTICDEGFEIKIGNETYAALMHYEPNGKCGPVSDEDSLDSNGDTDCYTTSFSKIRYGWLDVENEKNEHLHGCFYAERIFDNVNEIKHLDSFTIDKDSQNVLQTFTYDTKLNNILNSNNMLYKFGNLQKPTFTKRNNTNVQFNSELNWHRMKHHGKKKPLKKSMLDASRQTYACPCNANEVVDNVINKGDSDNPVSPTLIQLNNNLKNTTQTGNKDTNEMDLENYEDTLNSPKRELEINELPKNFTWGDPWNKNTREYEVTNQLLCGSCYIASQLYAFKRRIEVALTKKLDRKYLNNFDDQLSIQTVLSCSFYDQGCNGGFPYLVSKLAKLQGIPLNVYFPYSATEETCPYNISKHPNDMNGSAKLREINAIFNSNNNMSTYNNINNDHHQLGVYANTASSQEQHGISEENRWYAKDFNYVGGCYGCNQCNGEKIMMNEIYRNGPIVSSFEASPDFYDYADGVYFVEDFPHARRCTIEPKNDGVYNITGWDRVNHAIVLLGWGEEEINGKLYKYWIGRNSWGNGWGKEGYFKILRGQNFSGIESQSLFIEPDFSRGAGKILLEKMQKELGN

| SMILES | % Inhibition @ 10 uM |
| --- | --- |
| CCCS(=O)(=O)NCCc1cc2c(OC)ccc(OC)c2nc1O | -2.87% |
| C=CCN1C(=S)NC2(O)c3ccccc3C(=O)C12O (centres unmarked) | -5.51% |
| CC(=O)c1cc2c(cc1NC(=O)COc1ccc(C)cc1)OCO2 | -2.32% |
| CC1(C)CC(=O)C2=C(C1)c1c(ccc3ccccc13)NC2c1cccc(O)c1 (centres unmarked) | 4.52% |
| CCCC(=O)Nc1ccc(C(=O)Nc2ccc(F)c(Cl)c2)cc1 | 1.71% |
| Cc1nc2nc(-c3ccco3)nn2c(O)c1Cc1ccccc1 | 1% |
| COc1cccc(OC)c1C(=O)Nc1ccc2c(c1)OCO2 | -0.48% |
| Cc1ccc(NCC2OCc3ccccc3CO2)cc1 | 0.673% |
| CCc1nc2ccc(C(=O)N3CCN(Cc4ccc5c(c4)OCO5)CC3)cc2nc1CC | 8.5% |
| NC(=O)CSC12CC3CC(CC(C3)C1)C2 | 2.94% |
| OC1CN(C(c2ccccc2)c2ccccc2)C1 | 1.8% |
| N#CC1(NC(=O)[C@H](Cc2c(F)cccc2F)NC(=O)c2ccc(-c3ccccc3Cl)c(Cl)c2)CCN(C2CC2)CC1 | 18% |
| Cc1cc(N2CCC(C(=O)NCCN(C)C)CC2)n2nc(C)c(-c3ccc(Cl)cc3)c2n1 | 1.55% |
| O=S1(=O)c2ccccc2Nc2cc(C(F)(F)F)ccc21 | -4.26% |
| COc1cccc(CNCc2ccccc2F)c1OC | -2.14% |
| Cc1nc2c(c(C)nn2C(C)(C)C)c(C)c1CCC(=O)N1CCN(C(=O)c2ccco2)CC1 | 4.14% |
| Cc1ccc(NS(=O)(=O)c2cccc(C(=O)Nc3ccccc3)c2)cc1 | -0.0369% |
| NC1=NNC(c2ccccc2)=CS1 | -5.48% |
| CN(Cc1ccccc1)C(=O)c1cccc([N+](=O)[O-])c1 | 0.62% |
| CN1CCCN(Cc2ccc(F)c(Br)c2)CC1 | 3.01% |
| COc1cc(CN2CCN(Cc3ccc(OC)cc3OC)CC2)cc(OC)c1 | 7.02% |
| O=C1S/C(=C\c2ccc(O)cc2)C(=O)N1Cc1ccc(F)cc1 | 0.777% |

| SMILES | % Inhibition @ 10 uM |
| --- | --- |
| CN1CCC(NC2CCCc3ccccc32)CC1 (centres unmarked) | 1.88% |
| Cc1ccc(S(=O)(=O)Nc2sc3c(c2C(=O)O)CCCC3)cc1 | -2.59% |
| CCOC(=O)/C=C(\C)N1N=C2c3cc(OC)ccc3CCC2C1c1ccc([N+](=O)[O-])cc1 (centres unmarked) | 1.63% |
| COc1ccc2cc3c(N)nn(C(=O)/C=C/c4ccc(Br)cc4)c3nc2c1 | 4.95% |
| O=C(CSc1ccccc1)N1CCCCCC1 | 47.5% |
| CC12CCC(C(=O)Nc3ccc(Br)cn3)(C(=O)C1=O)C2(C)C (centres unmarked) | -3.26% |
| O=C(CN1C(=O)c2ccccc2S1(=O)=O)Nc1ccccc1Cl | 0.643% |
| COc1cccc2cc(C(=O)NC(C)(C)C)c(=O)oc12 | 1.32% |
| CCOCCCNC(=O)CSCc1nc(-c2ccc(C)cc2)oc1C | 0.689% |
| COc1ccc(N2CC(C(=O)Nc3cc(Cl)cc(Cl)c3)CC2=O)cc1 (centres unmarked) | 2.53% |
| CCCCc1ccc(C2C(C#N)=C(N)OC3=C2C(=O)CCC3)s1 (centres unmarked) | 4.3% |
| Cc1ccc(CN(CC(=O)N2CCN(c3ccccc3)CC2)S(=O)(=O)c2ccc(C)cc2)cc1 | 2.84% |
| CCC1=NC(c2ccc(OC)cc2OC)N(O)C1(C)C (centres unmarked) | -1.4% |
| COCc1cc(C)nc2c1C(=O)NC(c1cccnc1)N2Cc1ccccc1 (centres unmarked) | 7.89% |
| O=C(CC(O)(c1ccccc1)C(F)(F)F)c1cccs1 (centres unmarked) | -1.91% |
| CCC(C)(C)C1CCC2(CC1)NC(=S)N(C)N2 (centres unmarked) | 5.3% |
| COc1ccc(Cl)cc1NS(=O)(=O)c1cc(F)ccc1OC | 4.53% |
| Cc1c(C(=O)N2CCCC2)oc2c1-c1nn(CC(=O)O)cc1CC2 | 4.79% |
| Cc1ccc(C23CC4CC(CC(NC(=O)N5CCN(C)CC5)(C4)C2)C3)cc1 | -1.81% |
| O=C(c1ccccc1)c1cc2cc(Cl)ccc2[nH]1 | -5.33% |
| CCOc1ccc(NC(=N)Nc2nc(C)cc(O)n2)cc1 | 0.755% |
| COc1ccc(N2C(=O)CC3CS(=O)(=O)CC32)cc1 (centres unmarked) | 1.93% |

| SMILES | % Inhibition @ 10 uM |
| --- | --- |
| CC1CN(C(=O)c2cccnc2)C(C)CN1C(=O)c1cccnc1 (centres unmarked) | 0.0265% |
| COC(=O)c1sccc1NC(=O)Cn1nc(Cc2ccncc2)c2ccccc2c1=O | -6.52% |
| CCOC(=O)c1ccc(Nc2cc(-c3ccccc3)nc(-c3ccccc3)n2)cc1 | -9% |
| CC(C)CCNc1cnn(C23CC4CC(CC(CC(=O)O)(C4)C2)C3)c(=O)c1Cl | -1.66% |
| CCOC(=O)N1CCN(Cc2ccc(Cl)cc2)CC1 | -2.56% |
| CC(=O)N1N=C(c2ccc(C)cc2)Cn2c1nc1c2c(=O)n(C)c(=O)n1C | -3.75% |
| O=c1c2ccccc2nc(Cc2ccccc2)n1-c1cccc(O)c1 | 4.22% |
| Cc1ccc(NC(=O)C23CC4CC(C2)CC(n2cnc(Cl)n2)(C4)C3)cc1 | -6.39% |
| COc1ccc(-c2onc(C)c2C)cc1S(=O)(=O)NC(C)(C)C | -1.7% |
| COc1ccc(OC)c(/C=C2\SC(N3CCN(C)CC3)=NC2=O)c1 | -2.98% |
| N#CC1=C(N)OC2=C(C(=O)CC(c3ccccc3)C2)C1c1ccc(Cl)cc1Cl (centres unmarked) | -1.38% |
| CCOc1ccc(S(=O)(=O)NCc2nc3ccccc3[nH]2)cc1C | 1.32% |
| CCC[C@H](NC(=O)C1(NC(=O)c2cc(Cl)ccc2Cl)CCCCC1)C(=O)c1nc2ccccc2o1 | -4.72% |
| OCCN(Cc1ccccc1)Cc1cccc(C(F)(F)F)c1 | -0.0494% |
| Nc1nc(N)nc(Cn2c(-c3nonc3N)nc3ccccc32)n1 | 1.67% |
| O=C1Nc2ccccc2Sc2ccccc21 | 1.39% |
| CC(=O)C1=C(C)Nc2ncnn2C1c1cccs1 (centres unmarked) | -2.98% |
| O=C(NCC1COc2ccccc2O1)C1CCC(CNc2c(N3CCCCC3)c(=O)c2=O)CC1 (centres unmarked) | 1.22% |
| CSc1nc(N)c2ncc(-c3ccccc3)nc2n1 | 0.751% |
| CCn1c2ccccc2c2cc(CNC3CCCCC3)ccc21 | -1.54% |
| COc1nc(N2CCCCCC2)nc(N(Cc2ccccc2)Cc2ccccc2)n1 | 3.01% |

From publication PMC6919601, “Identification of Plasmodium dipeptidyl aminopeptidase allosteric inhibitors by high throughput screening” (PLoS ONE, 2019)
